# This is one part of the list. At the low end of the ranking, values are background and their order means little.
# Biological target: GST-SBP-SLBP (stem-loop binding protein) (UniProt Q14493)
# Assay: targeted RNA Bind-n-Seq;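 also: DESeq read counts versus GST-SBP nonspecific binding control pulldown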
# Settings: RBNS binding buffer: 25 mM Tris pH 7.5, 150 mM KCl, 3 mM MgCl2, 0.1% Tween, 0.5 mg/mL BSA, 1 mM DTT; 27 nM protein, 750 pM RNA pool; temperature not stated; high values mean tight binding
row,Sequence,binding signal (log2 fold change)
1,GGUCACGUCUCAAUCAACUCAAUUUCAGGAGUUUCCUCCUGUUUUCUCAACAGCUCGCAGUCAAG,-0.0145
2,GGUCACGUCUCAAUCAACUCAUUCGCCAGGGAAAACCCUGGGUAUUUCAACAGCUCGCAGUCAAG,0.292
3,GGUCACGUCUCAAUCAACUCAAUCCCCAGGGAAACCCCUGGCAUAUUCAACAGCUCGCAGUCAAG,-0.395
4,GGUCACGUCUCAAUCAACUCAAAAGAGGGGGGGAAAACCCCUUUACCCUCCCAAUCAACAGCUCGCAGUCAAG,0.0325
5,GGUCACGUCUCAAUCAACUCAACUUCAGGAGUUUACUCCUGCAAAUUCAACAGCUCGCAGUCAAG,-0.0639
6,GGUCACGUCUCAAUCAACUCUUCCCCCAGGGAAAACCCUGGUAUUUUCAACAGCUCGCAGUCAAG,-0.0867
7,GGUCACGUCUCAAUCAACUCUUUCCCAGGAGUUUCCUCCUGUUAUCUCAACAGCUCGCAGUCAAG,0.242
8,GGUCACGUCUCAAUCAACUCAUUCCCCAGGGAAAUCCCUGGCUAAUUCAACAGCUCGCAGUCAAG,-0.101
9,GGUCACGUCUCAAUCAACUCAGUCUCAGGAGUUUCCUCCUGUUAAUUCAACAGCUCGCAGUCAAG,0.00689
10,GGUCACGUCUCAAUCAACUCAUUCUCAGGAGUUUACUCCUGUUUACUCAACAGCUCGCAGUCAAG,-0.0969
11,GGUCACGUCUCAAUCAACUCUAUCCCCAGGGAAAGCCCUGGUUUACUCAACAGCUCGCAGUCAAG,0.263
12,GGUCACGUCUCAAUCAACUCCUUAGAGGGGGGGAAAACCCCUUUGCCCUCAUUCUCAACAGCUCGCAGUCAAG,-0.468
13,GGUCACGUCUCAAUCAACUCUUUUUCCAGGGAAAGCCCUGGUAAUUUCAACAGCUCGCAGUCAAG,0.059
14,GGUCACGUCUCAAUCAACUCAGUCUCCAGGGAAAUCCCUGGUUUAUUCAACAGCUCGCAGUCAAG,-0.156
15,GGUCACGUCUCAAUCAACUCUUCCGCAGGAGUUUCCUCCUGGUAAUUCAACAGCUCGCAGUCAAG,0.0971
16,GGUCACGUCUCAAUCAACUCUUCUUCAGGAGUUUACUCCUGUAAUCUCAACAGCUCGCAGUCAAG,0.0621
17,GGUCACGUCUCAAUCAACUCUAUAGAGGGGGGGAAAACCCCUUUACCCUCCCAAUCAACAGCUCGCAGUCAAG,0.213
18,GGUCACGUCUCAAUCAACUCUAUUCCCAGGGAAAUCCCUGGCUUUUUCAACAGCUCGCAGUCAAG,0.13
19,GGUCACGUCUCAAUCAACUCUAAAGAGGGGGGGAAAACCCCUUUGCCCUCCACAUCAACAGCUCGCAGUCAAG,0.069
20,GGUCACGUCUCAAUCAACUCAGUCUCCAGGGAAACCCCUGGUUAAUUCAACAGCUCGCAGUCAAG,-0.028
21,GGUCACGUCUCAAUCAACUCUCUAGAGGGGGGGAAAACCCCUUUACCCUCACAUUCAACAGCUCGCAGUCAAG,-0.0215
22,GGUCACGUCUCAAUCAACUCUUCUCCCAGGGAAAGCCCUGGUUAAUUCAACAGCUCGCAGUCAAG,0.132
23,GGUCACGUCUCAAUCAACUCACCCGAGGGGGGGAAAACCCCUUUACCCUCACAAUCAACAGCUCGCAGUCAAG,-0.329
24,GGUCACGUCUCAAUCAACUCCAACGAGGGGGGGAAAACCCCUUUACCCUCAUUAUCAACAGCUCGCAGUCAAG,0.197
25,GGUCACGUCUCAAUCAACUCUAACGAGGGGGGGAAAACCCCUUUGCCCUCAAUCUCAACAGCUCGCAGUCAAG,0.259

row,Sequence,binding signal (log2 fold change)
1,GGUCACGUCUCAAUCAACUCAUUCUCCAGGGAAACCCCUGGCUUACUCAACAGCUCGCAGUCAAG,0.0472
2,GGUCACGUCUCAAUCAACUCAUCUUCCAGGGAAACCCCUGGUAUUUUCAACAGCUCGCAGUCAAG,0.121
3,GGUCACGUCUCAAUCAACUCUUCGUCAGGAGUUUACUCCUGUUUUCUCAACAGCUCGCAGUCAAG,0.0768
4,GGUCACGUCUCAAUCAACUCUAUUUCAGGAGUUUCCUCCUGCUAUCUCAACAGCUCGCAGUCAAG,0.101
5,GGUCACGUCUCAAUCAACUCUUUAGAGGGGGGGAAAACCCCUUUACCCUCACAAUCAACAGCUCGCAGUCAAG,0.17
6,GGUCACGUCUCAAUCAACUCAAUCCCCAGGGAAACCCCUGGCAAUCUCAACAGCUCGCAGUCAAG,-0.124
7,GGUCACGUCUCAAUCAACUCUUUCCCAGGAGUUUCCUCCUGUUUUCUCAACAGCUCGCAGUCAAG,0.0978
8,GGUCACGUCUCAAUCAACUCAAACGAGGGGGGGAAAACCCCUUUACCCUCACCUUCAACAGCUCGCAGUCAAG,0.0402
9,GGUCACGUCUCAAUCAACUCAUUCCCCAGGGAAACCCCUGGUUUUCUCAACAGCUCGCAGUCAAG,0.147
10,GGUCACGUCUCAAUCAACUCAAAAGAGGGGGGGAAAACCCCUUUGCCCUCAAUCUCAACAGCUCGCAGUCAAG,0.208
11,GGUCACGUCUCAAUCAACUCAAUUUCAGGAGUUUGCUCCUGUAUUUUCAACAGCUCGCAGUCAAG,-0.135
12,GGUCACGUCUCAAUCAACUCUUCGUCAGGAGUUUACUCCUGUAAUCUCAACAGCUCGCAGUCAAG,0.0942
13,GGUCACGUCUCAAUCAACUCCAACGAGGGGGGGAAAACCCCUUUGCCCUCAAAAUCAACAGCUCGCAGUCAAG,0.0864
14,GGUCACGUCUCAAUCAACUCUUCCUCCAGGGAAACCCCUGGCUUUUUCAACAGCUCGCAGUCAAG,0.107
15,GGUCACGUCUCAAUCAACUCAAUCUCAGGAGUUUACUCCUGCUAUGUCAACAGCUCGCAGUCAAG,0.146
16,GGUCACGUCUCAAUCAACUCAAUUCCAGGAGUUUGCUCCUGCUUUCUCAACAGCUCGCAGUCAAG,0.155
17,GGUCACGUCUCAAUCAACUCUACUCCAGGAGUUUACUCCUGCUAUUUCAACAGCUCGCAGUCAAG,-0.0258
18,GGUCACGUCUCAAUCAACUCAUUCUCAGGAGUUUCCUCCUGUAAACUCAACAGCUCGCAGUCAAG,0.266
19,GGUCACGUCUCAAUCAACUCAUCUCCAGGAGUUUACUCCUGUUUAGUCAACAGCUCGCAGUCAAG,0.0103
20,GGUCACGUCUCAAUCAACUCUACUCCCAGGGAAAUCCCUGGCAUACUCAACAGCUCGCAGUCAAG,0.0256
21,GGUCACGUCUCAAUCAACUCAAUUCCAGGAGUUUUCUCCUGUAUUCUCAACAGCUCGCAGUCAAG,-0.168
22,GGUCACGUCUCAAUCAACUCAAUCCCCAGGGAAAGCCCUGGUUAUCUCAACAGCUCGCAGUCAAG,-0.278
23,GGUCACGUCUCAAUCAACUCAAUCUCCAGGGAAAGCCCUGGCUAUUUCAACAGCUCGCAGUCAAG,0.186
24,GGUCACGUCUCAAUCAACUCUUUCUCCAGGGAAAGCCCUGGUAUAUUCAACAGCUCGCAGUCAAG,-0.039
25,GGUCACGUCUCAAUCAACUCAACUUCCAGGGAAAACCCUGGUAAAUUCAACAGCUCGCAGUCAAG,-0.212

row,Sequence,binding signal (log2 fold change)
1,GGUCACGUCUCAAUCAACUCUUCUUCAGGAGUUUACUCCUGCUAAUUCAACAGCUCGCAGUCAAG,0.0717
2,GGUCACGUCUCAAUCAACUCAUUUUCAGGAGUUUUCUCCUGUAAUCUCAACAGCUCGCAGUCAAG,-0.0689
3,GGUCACGUCUCAAUCAACUCCUUAGAGGGGGGGAAAACCCCUUUACCCUCAAAAUCAACAGCUCGCAGUCAAG,0.546
4,GGUCACGUCUCAAUCAACUCUCCAGAGGGGGGGAAAACCCCUUUACCCUCAUCAUCAACAGCUCGCAGUCAAG,-0.392
5,GGUCACGUCUCAAUCAACUCAAUUUCAGGAGUUUUCUCCUGCUUAUUCAACAGCUCGCAGUCAAG,-0.0241
6,GGUCACGUCUCAAUCAACUCAUUUUCAGGAGUUUCCUCCUGUAAUUUCAACAGCUCGCAGUCAAG,0.0847
7,GGUCACGUCUCAAUCAACUCUACUUCCAGGGAAACCCCUGGUUUUUUCAACAGCUCGCAGUCAAG,-0.0812
8,GGUCACGUCUCAAUCAACUCUUCGUCAGGAGUUUUCUCCUGCAUAUUCAACAGCUCGCAGUCAAG,0.133
9,GGUCACGUCUCAAUCAACUCUUCUCCCAGGGAAAACCCUGGUUUACUCAACAGCUCGCAGUCAAG,0.182
10,GGUCACGUCUCAAUCAACUCUAUCUCAGGAGUUUACUCCUGUAAAUUCAACAGCUCGCAGUCAAG,-0.0972
11,GGUCACGUCUCAAUCAACUCAAUUCCAGGAGUUUUCUCCUGUUUUCUCAACAGCUCGCAGUCAAG,-0.00904
12,GGUCACGUCUCAAUCAACUCAACUUCCAGGGAAAGCCCUGGUUUACUCAACAGCUCGCAGUCAAG,0.296
13,GGUCACGUCUCAAUCAACUCAAAAGAGGGGGGGAAAACCCCUUUGCCCUCACUAUCAACAGCUCGCAGUCAAG,0.00436
14,GGUCACGUCUCAAUCAACUCAGUUUCAGGAGUUUACUCCUGUAUUUUCAACAGCUCGCAGUCAAG,-0.0334
15,GGUCACGUCUCAAUCAACUCUAUCUCCAGGGAAAACCCUGGUUUUCUCAACAGCUCGCAGUCAAG,0.295
16,GGUCACGUCUCAAUCAACUCAUUCUCCAGGGAAACCCCUGGUAUUCUCAACAGCUCGCAGUCAAG,0.127
17,GGUCACGUCUCAAUCAACUCAUUCCCCAGGGAAAACCCUGGCAUUUUCAACAGCUCGCAGUCAAG,-0.104
18,GGUCACGUCUCAAUCAACUCACAAGAGGGGGGGAAAACCCCUUUGCCCUCACAUUCAACAGCUCGCAGUCAAG,0.0955
19,GGUCACGUCUCAAUCAACUCUUCGUCCAGGGAAAACCCUGGCAAAUUCAACAGCUCGCAGUCAAG,0.0797
20,GGUCACGUCUCAAUCAACUCUUCCCCCAGGGAAACCCCUGGCUAAUUCAACAGCUCGCAGUCAAG,0.313
21,GGUCACGUCUCAAUCAACUCAAGUCCAGGAGUUUCCUCCUGCUAUUUCAACAGCUCGCAGUCAAG,0.255
22,GGUCACGUCUCAAUCAACUCUUCUUCCAGGGAAACCCCUGGCUAUGUCAACAGCUCGCAGUCAAG,-0.201
23,GGUCACGUCUCAAUCAACUCAUUUUCAGGAGUUUGCUCCUGCUUAUUCAACAGCUCGCAGUCAAG,0.0844
24,GGUCACGUCUCAAUCAACUCUUCCCCCAGGGAAACCCCUGGCAAUCUCAACAGCUCGCAGUCAAG,0.108

# — publication PMC5892938
